Some of the results follow.
test system: T1, Caupolican (Caup) homeodomain DNA-binding domain; test: PBM E-score (8-mer, recovered from the published 9-mer minima) (E-score (dimensionless, -0.5 to 0.5)); Drosophila protein; higher = stronger relative binding preference, active = 0.31 or more
T1 sequence: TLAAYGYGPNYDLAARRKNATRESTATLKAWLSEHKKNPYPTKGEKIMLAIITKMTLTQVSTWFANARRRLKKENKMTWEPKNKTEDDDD
Method in brief: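 An enrichment score, with higher meaning stronger, expresses relative binding preference for each short DNA word. The protein used was Caup's homeodomain DNA-binding domain (residues 214-303), produced by in vitro transcription and translation and tested at 100 nM on custom-designed protein binding microarrays. The 8-mer values were recovered from published 9-mer scores, each equal to the lower of its two constituent 8-mer scores.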

Sequence | PBM E-score
GTTGTGAA | inactive: 0.137
AATCGCCT | inactive: -0.0401
ATGGCCAT | ≥ 0.0724
ATACCGTA | inactive: 0.0198
CTTAGATA | inactive: -0.0232
GTCGGGTA | inactive: 0.0154
GGGTCTAA | inactive: -0.0631
CTGGGGTA | inactive: -0.13
GCCCACCC | inactive: -0.104
GTTACTAA | inactive: 0.217
CTGTTCGC | inactive: 0.0582
AAAATCGC | inactive: -0.0248
CGGGGAAC | inactive: -0.0506
CCGTACAG | inactive: 0.0104
GGCCTACA | inactive: -0.0428
CGACCTAC | inactive: -0.0968
ACCCGCGC | inactive: -0.121
GATGGGGC | inactive: -0.192
AACGCTCG | inactive: -0.118
CCAAACTC | inactive: -0.0814
ATCATAGG | inactive: -0.0228
AAACCCAA | ≥ 0.0724
ATGAATTC | inactive: 0.00101
CAATCACA | inactive: 0.196
AACAATCA | inactive: 0.195

Sequence | PBM E-score
ACCGTAGT | inactive: -0.0186
TGTGTAAA | active: 0.318
GCGTTAGC | inactive: -0.0587
ACCCGAAG | inactive: -0.142
CACTTTCC | inactive: -0.0851
CTTAGGAA | inactive: 0.0357
CAAATTAC | inactive: 0.132
GAGACGAC | inactive: -0.011
CCGAAAAA | inactive: 0.037
GTTCAGGA | inactive: 0.00542
AAAAATCA | inactive: 0.11
CCATACAA | inactive: 0.198
GGGTGCGA | inactive: -0.079
TGTTCAAA | inactive: 0.242
AGGTGTCA | inactive: 0.196
AACTTAGG | inactive: 0.00447
GTCTGGCA | inactive: -0.137
ACGATAGG | inactive: -0.0358
AGAGTAAC | inactive: 0.0554
GACGTTAA | inactive: 0.0357
TCAACTAA | inactive: 0.129
ACGGTTCG | inactive: -0.122
CGACTCTC | inactive: -0.0956
GAAAGACC | inactive: -0.123
CCGGCGCC | inactive: -0.253

Sequence | PBM E-score
AAAATAGG | inactive: 0.0632
GAGATGAA | inactive: 0.0213
GCTAGAGA | inactive: -0.0508
AAGCCTCC | inactive: -0.16
GTGACAAC | inactive: 0.303
CTTTCATA | inactive: 0.0707
CAGGATAC | inactive: 0.023
AATCATAT | inactive: 0.152
TAGGGAAA | inactive: 0.0138
CTGTGTAA | inactive: 0.294
AGATGAAC | inactive: 0.133
ATGACCAG | inactive: 0.0581
AAAATGTA | inactive: 0.166
ACGTTCGA | inactive: 0.0289
ATAGAGTG | inactive: 0.0385
CTATATCA | inactive: 0.0895
AAATTCGG | inactive: 0.0188
GGTGGACA | inactive: 0.0406
CTTGATTA | inactive: 0.023
AGATTGGC | inactive: -0.0959
AAGGCCGC | inactive: -0.191
CAGGCACG | inactive: -0.134
CCCGCTCC | inactive: -0.343
AATGTTGC | inactive: 0.207
AAGTTGCG | inactive: 0.0343

Sequence | PBM E-score
GGTTGCGA | inactive: -0.0238
CGGGGTTA | inactive: -0.126
GGTAGCCA | inactive: -0.0887
ACAAGACT | inactive: 0.28
CCCAGGGG | inactive: -0.287
TATCGAGA | inactive: 0.111
AGAGCAGG | inactive: -0.0146
ATTCGCCA | inactive: -0.061
GCCAAGAC | inactive: -0.0789
CTGACCAC | inactive: -0.0657
CTTCGAGC | inactive: -0.169
AAAATCTC | inactive: 0.0777
CGCCGGGC | inactive: -0.289
GGAGGCCC | inactive: -0.306
AAGTCGCT | inactive: -0.0392
GAGCTTAC | inactive: -0.0262
CGTGATGA | inactive: -0.0102
ATGCTAAT | inactive: 0.162
CATTAAAA | inactive: 0.15
GCTAACCA | inactive: 0.00738
GGATTCAC | inactive: -0.0289
ATTGGCTG | inactive: -0.0389
AGGCCTCC | inactive: -0.183
CGGCTCAA | inactive: -0.133
TATTGTAA | inactive: 0.275

Sequence | PBM E-score
TCACCTCA | inactive: -0.0289
AACTCAGT | inactive: 0.0365
GCGGATAA | inactive: -0.0433
GACCAAAA | inactive: 0.029
CCCTGACG | inactive: -0.165
CACGCGGA | inactive: -0.017
GAACCATC | inactive: -0.0355
ATGTACAC | active: 0.441
CCCGGGGC | inactive: -0.344
CATATTCC | inactive: -0.0636
CAGGTACA | inactive: 0.298
GGGCTCCA | inactive: -0.286
ATCTATAA | inactive: 0.0941
AAAGCATA | inactive: 0.105
AATAGCTA | inactive: 0.0749
CCTGTGAA | inactive: -0.0104
GGGGTAGA | inactive: -0.16
GCTCTTAA | inactive: -0.0377
GATAGTCA | inactive: -0.0107
GTATGGAA | inactive: -0.0219
CCGCCAAA | inactive: -0.134
AACTACAC | active: 0.355
CCACCCAG | inactive: -0.0545
CCGACACC | inactive: -0.0618
ATGAAATG | inactive: -0.0333

Sequence | PBM E-score
GCGTCTTA | inactive: -0.0591
GGCTGAAC | inactive: -0.0987
GTACGTGA | inactive: 0.108
AGGAAGTG | inactive: -0.014
ATAAGTTG | inactive: 0.121
CTAAAGCC | inactive: -0.0837
ATCAACAA | inactive: 0.289
ACGATGCC | inactive: -0.137
AACTACCT | inactive: 0.122
ATACGGTG | inactive: 0.0413
CCGGTAAC | inactive: -0.0103
GCGCAACA | inactive: 0.0279
ACGACGTA | ≥ 0.128
GAAAGGTC | inactive: -0.0303
GCATGTTA | active: 0.397
CGTGTTAG | inactive: 0.285
CTTTGCGA | inactive: -0.0806
AAGGCCTA | inactive: -0.13
ACCCTCTG | inactive: -0.179
ACTTGACG | inactive: 0.0476
AATTGTGT | inactive: 0.202
GAGAGGCC | inactive: -0.194
GGTTGATA | inactive: 0.0981
AGGACGAG | inactive: -0.0574
AAAGTGGA | inactive: -0.0524

Sequence | PBM E-score
ACTCATAT | inactive: 0.0842
CATTTACA | inactive: 0.239
CGCGCTTA | inactive: -0.0356
CTAGTTTA | inactive: 0.0982
CTGCATAC | inactive: 0.102
CCGTCCCC | inactive: -0.261
ATCTCTAG | inactive: -0.0553
ATACTTTA | inactive: 0.159
AATGTTCG | inactive: 0.154
CCAGGCCA | inactive: -0.213
TAGACAAA | inactive: 0.144
GCGAATAC | inactive: 0.0418
AACAATGG | inactive: 0.198
AACTCAAT | inactive: 0.0711
CCCAGCAG | inactive: -0.201
AACTGGCA | inactive: -0.139
CCGCATGC | inactive: -0.125
CGGTACCC | inactive: -0.183
TTCCCCAA | inactive: -0.0437
ACTATACT | inactive: 0.114
CAAGTTAA | inactive: 0.137
ATGGGAAT | inactive: 0.0473
GCATGCCA | inactive: -0.0807
TCGTCCAA | inactive: -0.0617
CAAAGGCA | ≥ 0.0673

Sequence | PBM E-score
TATTTTGA | inactive: 0.126
GCCATTTA | inactive: -0.0224
CAGCATCA | inactive: 0.058
CTATCATA | inactive: 0.0368
AAACGACT | inactive: 0.0374
CCCATTTC | inactive: -0.136
AAATAGCT | inactive: -0.0104
GTGCGCTA | inactive: -0.0015
CTGTTCAA | inactive: 0.0792
CACGCTTC | inactive: -0.0968
CACATACG | inactive: 0.0593
CGTGTACC | active: 0.35
GGCCATTA | inactive: -0.0842
ACGCGATA | ≥ 0.0811
CAGTTGGC | inactive: -0.0825
ATTAGTCA | ≥ 0.175
AAGCAGCA | inactive: -0.0143
ACTATTAA | inactive: 0.145
AGAAATGC | inactive: 0.0833
ATTCTGGA | inactive: 0.11
CGAGGAAC | inactive: -0.00281
AATCGCAG | inactive: 0.0242
CGGTCTGA | inactive: -0.0584
AATATCGG | inactive: 0.0331
GTTGCCAA | inactive: 0.0175

Sequence | PBM E-score
GGGCGATA | inactive: -0.0779
CAGATAAA | inactive: 0.0646
TCAGACAA | inactive: 0.185
AAACCCGG | inactive: -0.123
AATTTCTA | inactive: 0.0285
GTGCCCCA | inactive: -0.179
GACCACCA | inactive: -0.0619
AGGTCTTC | inactive: -0.0685
GATCTTTA | inactive: 0.00911
ATTGGATG | inactive: 0.183
AAAATCAT | inactive: 0.182
ATGTCCTG | inactive: 0.223
AATGGAGT | inactive: -0.0641
ACCTAGCT | inactive: -0.0673
AAGATCAC | inactive: 0.0799
GCCAGGTA | inactive: -0.0274
CCAGGCTC | inactive: -0.116
CCGGGTTC | inactive: -0.169
GAGAGCCA | inactive: -0.127
TATCCGAA | inactive: 0.03
GTCGCGAA | inactive: 0.00326
ACCGACAT | inactive: 0.307
ACCAAACC | inactive: 0.0399

— the supplement of paper PMC3724861
